Measured values published in patent publication US20190225665A1 (Stanford University, published 2019).

Columns and labels:
IFN-αR1 = target: T1, IFN-αR1 (UniProt P17181 28-436, limits assumed); assay: SPR, kinetic, receptor captured on Biotin CAP chip
T1 construct: Expressed in Hi5 insect cells and captured on a Biotin CAP chip for SPR; also called IFNAR1
T1 sequence (looked up): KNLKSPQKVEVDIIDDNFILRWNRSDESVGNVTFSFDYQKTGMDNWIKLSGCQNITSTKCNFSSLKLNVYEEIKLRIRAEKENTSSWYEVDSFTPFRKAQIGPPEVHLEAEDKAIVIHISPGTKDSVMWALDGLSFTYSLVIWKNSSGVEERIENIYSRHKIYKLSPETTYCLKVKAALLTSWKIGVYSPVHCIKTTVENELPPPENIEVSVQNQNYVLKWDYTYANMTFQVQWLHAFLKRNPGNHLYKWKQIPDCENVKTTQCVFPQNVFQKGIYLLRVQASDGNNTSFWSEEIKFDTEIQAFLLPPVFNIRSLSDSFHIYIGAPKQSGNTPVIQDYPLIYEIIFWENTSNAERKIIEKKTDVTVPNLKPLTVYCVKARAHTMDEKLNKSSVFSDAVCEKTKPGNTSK
Text: (§1) Surface plasmon resonance. GE Biacore T100 was used to measure the KD by either kinetic (type I IFNs) or equilibrium (type III IFNs) methods. Approximately 100 RU of each of the receptors of were captured on a Biotin CAP-chip (GE) including a reference channel of an unrelated cytokine receptor (IL-2Rβ).

IFN-αR2 = target: T2, IFN-αR2 (UniProt P48551 27-243, limits assumed); assay: SPR, kinetic, receptor captured on Biotin CAP chip
T2 construct: Expressed in Hi5 insect cells and captured on a Biotin CAP chip for SPR; also called IFNAR2
T2 sequence (looked up): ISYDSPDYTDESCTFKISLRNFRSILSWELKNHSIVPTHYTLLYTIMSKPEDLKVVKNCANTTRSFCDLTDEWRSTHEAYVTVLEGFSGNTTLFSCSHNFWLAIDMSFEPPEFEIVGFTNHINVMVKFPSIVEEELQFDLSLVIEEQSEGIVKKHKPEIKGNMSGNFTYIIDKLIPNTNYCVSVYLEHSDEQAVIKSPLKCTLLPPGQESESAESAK
Text: as §1

[1] = target: T3, heterodimeric receptor comprised of IFN-αR1 and IFN-αR2 (on cells) (UniProt P17181 28-557; P48551 27-515, limits assumed); assay: cell-based or functional assay
T3 sequence (looked up) 1: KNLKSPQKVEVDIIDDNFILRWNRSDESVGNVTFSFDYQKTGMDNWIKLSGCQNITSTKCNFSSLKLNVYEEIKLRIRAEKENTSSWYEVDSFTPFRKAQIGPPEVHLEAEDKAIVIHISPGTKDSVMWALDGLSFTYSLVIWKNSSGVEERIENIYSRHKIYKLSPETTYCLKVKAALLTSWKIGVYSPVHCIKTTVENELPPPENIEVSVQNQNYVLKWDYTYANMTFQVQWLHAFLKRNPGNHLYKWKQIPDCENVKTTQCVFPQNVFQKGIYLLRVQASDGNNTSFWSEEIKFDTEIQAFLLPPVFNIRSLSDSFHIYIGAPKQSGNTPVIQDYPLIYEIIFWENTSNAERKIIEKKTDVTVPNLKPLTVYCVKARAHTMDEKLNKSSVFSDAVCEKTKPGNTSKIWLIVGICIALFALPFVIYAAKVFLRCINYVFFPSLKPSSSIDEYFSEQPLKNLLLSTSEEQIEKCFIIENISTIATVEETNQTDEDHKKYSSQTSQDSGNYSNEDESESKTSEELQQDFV
T3 sequence (looked up) 2: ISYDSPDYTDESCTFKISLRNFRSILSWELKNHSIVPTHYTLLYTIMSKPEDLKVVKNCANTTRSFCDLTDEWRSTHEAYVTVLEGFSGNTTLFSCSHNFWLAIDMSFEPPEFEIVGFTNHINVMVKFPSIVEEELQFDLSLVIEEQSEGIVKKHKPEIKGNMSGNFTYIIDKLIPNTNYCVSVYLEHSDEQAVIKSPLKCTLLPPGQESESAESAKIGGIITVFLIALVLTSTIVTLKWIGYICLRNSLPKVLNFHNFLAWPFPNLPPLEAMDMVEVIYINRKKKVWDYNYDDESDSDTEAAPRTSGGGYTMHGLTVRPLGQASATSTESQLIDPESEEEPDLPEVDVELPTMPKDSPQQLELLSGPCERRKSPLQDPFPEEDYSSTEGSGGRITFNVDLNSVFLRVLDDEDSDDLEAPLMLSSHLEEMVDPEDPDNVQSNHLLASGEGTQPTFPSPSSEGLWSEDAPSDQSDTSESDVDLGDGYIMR

B1: IFNW K152R (ligand)
chain: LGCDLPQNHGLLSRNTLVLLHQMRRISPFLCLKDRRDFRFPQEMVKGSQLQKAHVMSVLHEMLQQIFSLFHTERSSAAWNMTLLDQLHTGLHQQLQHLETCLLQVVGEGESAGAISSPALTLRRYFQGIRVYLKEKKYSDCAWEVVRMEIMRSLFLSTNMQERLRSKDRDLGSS
notes: also called IFN-ω (Lys152Arg)
Kd (IFN-αR1): 4300 nM | Kd (IFN-αR2): 0.2 nM | EC50 AP (M); proliferation inhibition of WISH cells [1]: 2.2e-11 M
